The other results are listed elsewhere or left out. Single values of this set are uncertain. Values with irradiation are relative to irradiated vehicle.
Assays:
[1] = tested on: A549-Dual; assay: NF-kB reporter (SEAP) activity, viability-corrected, relative to vehicle (fold change vs vehicle); higher = more activation of STING-IRF / NF-kB immune response reporter; details: 10 µM
[2] = tested on: A549-Dual; assay: ISRE reporter (Lucia luciferase) activity, viability-corrected, relative to vehicle (fold change vs vehicle); higher = more activation of STING-IRF / NF-kB immune response reporter; details: 10 µM
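Throughout, for NF-kB reporter (SEAP) activity, viability-corrected, relative to vehicle: viability correction based on the alamar blue assay, with concentrations leaving 10% survival or less dropped.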

`CCCCCNC(=N)N/N=C/c1c[nH]c2ccc(OC)cc12.O=C(O)/C=C\C(=O)O` [Tegaserod Maleate] gave an NF-kB reporter ([1]; irradiation: none) of 1.45 and an ISRE reporter ([2]; irradiation: none) of 0.512.
`Cc1cc(C(=O)NNCc2ccccc2)no1` [Isocarboxazid] showed an NF-kB reporter ([1]; irradiation: 8 Gy/4 fr) of 0.588, an NF-kB reporter ([1]; irradiation: none) of 0.972 and an ISRE reporter ([2]; irradiation: 8 Gy/4 fr) of 0.534. It also gave an ISRE reporter ([2]; irradiation: none) of 0.596.
Compound `O.O=c1c(O)c(-c2ccc(O)cc2O)oc2cc(O)cc(O)c12` [Morin Hydrate] has an NF-kB reporter ([1]; irradiation: 8 Gy/4 fr) of 0.709, an NF-kB reporter ([1]; irradiation: none) of 0.646 and an ISRE reporter ([2]; irradiation: 8 Gy/4 fr) of 0.55. The ISRE reporter ([2]; irradiation: none) was 0.423.
Work on `COc1ccc2[n-]c(S(=O)Cc3ncc(C)c(OC)c3C)nc2c1.COc1ccc2[n-]c(S(=O)Cc3ncc(C)c(OC)c3C)nc2c1.[Mg+2]` (stereo not drawn) [NEXIUM (esomeprazole magnesium)] yielded an NF-kB reporter ([1]; irradiation: 8 Gy/4 fr) of 0.71, an NF-kB reporter ([1]; irradiation: none) of 0.838 and an ISRE reporter ([2]; irradiation: 8 Gy/4 fr) of 0.548. The ISRE reporter ([2]; irradiation: none) was 0.66.
`CNCCc1ccccn1.Cl.Cl` [Betahistine 2HCl] was tested, and the NF-kB reporter ([1]; irradiation: 8 Gy/4 fr) was 0.984, the NF-kB reporter ([1]; irradiation: none) was 0.998 and the ISRE reporter ([2]; irradiation: 8 Gy/4 fr) was 1.05. The ISRE reporter ([2]; irradiation: none) was 0.919.
In the case of `Nc1ccc2cc3ccc(N)cc3nc2c1.Nc1ccc2cc3ccc(N)cc3nc2c1.O=S(=O)(O)O` [Proflavine Hemisulfate], the NF-kB reporter ([1]; irradiation: none) was 4.42 and the ISRE reporter ([2]; irradiation: none) was 5.59.
`OC1(c2ccc(Cl)c(C(F)(F)F)c2)CCN(CCCC(c2ccc(F)cc2)c2ccc(F)cc2)CC1` [Penfluridol] gave an NF-kB reporter ([1]; irradiation: 8 Gy/4 fr) of 1 and an ISRE reporter ([2]; irradiation: 8 Gy/4 fr) of 0.861.
`CCCCc1oc2ccc(NS(C)(=O)=O)cc2c1C(=O)c1ccc(OCCCN(CCCC)CCCC)cc1.Cl` [Dronedarone HCl] was tested, and the NF-kB reporter ([1]; irradiation: 8 Gy/4 fr) was 1.25 and the ISRE reporter ([2]; irradiation: 8 Gy/4 fr) was 0.607.
`NC(CO)C(=O)O` (racemic) [DL-Serine] showed an NF-kB reporter ([1]; irradiation: 8 Gy/4 fr) of 1.31, an NF-kB reporter ([1]; irradiation: none) of 0.757 and an ISRE reporter ([2]; irradiation: 8 Gy/4 fr) of 1.39. It also gave an ISRE reporter ([2]; irradiation: none) of 0.859.
In the case of `CCOc1ccccc1OC(c1ccccc1)C1CNCCO1.CS(=O)(=O)O` (stereo not drawn) [Reboxetine mesylate], the NF-kB reporter ([1]; irradiation: 8 Gy/4 fr) was 0.707, the NF-kB reporter ([1]; irradiation: none) was 1.09 and the ISRE reporter ([2]; irradiation: 8 Gy/4 fr) was 0.93. For the same compound, the ISRE reporter ([2]; irradiation: none) was 1.18.
`CN(C)N(C)C(=O)C1(Cc2ccccc2)CCCN(C(=O)C(Cc2c[nH]c3ccccc23)NC(=O)C(C)(C)N)C1` (stereo not drawn) [Anamorelin] showed an NF-kB reporter ([1]; irradiation: 8 Gy/4 fr) of 0.977, an NF-kB reporter ([1]; irradiation: none) of 0.772 and an ISRE reporter ([2]; irradiation: 8 Gy/4 fr) of 1.28. It also gave an ISRE reporter ([2]; irradiation: none) of 1.13.
With `NS(=O)(=O)c1cc2c(cc1Cl)NC(C(Cl)Cl)NS2(=O)=O` (stereo not drawn) [Trichlormethiazide] the NF-kB reporter ([1]; irradiation: 8 Gy/4 fr) was 0.653, the NF-kB reporter ([1]; irradiation: none) was 0.924 and the ISRE reporter ([2]; irradiation: 8 Gy/4 fr) was 0.797. The ISRE reporter ([2]; irradiation: none) was 0.745.
`C=C1c2c(Cl)ccc(O)c2C(=O)C2=C(O)C3(O)C(=O)C(C(N)=O)=C(O)C(N(C)C)C3C(O)C12.O=C(O)c1cc(S(=O)(=O)O)ccc1O` (stereo not drawn) [Meclocycline Sulfosalicylate] showed an NF-kB reporter ([1]; irradiation: 8 Gy/4 fr) of 0.625, an NF-kB reporter ([1]; irradiation: none) of 0.921 and an ISRE reporter ([2]; irradiation: 8 Gy/4 fr) of 0.328. It also gave an ISRE reporter ([2]; irradiation: none) of 0.673.
With `COc1ccc(O)cc1` [Mequinol] the NF-kB reporter ([1]; irradiation: 8 Gy/4 fr) was 1.03, the NF-kB reporter ([1]; irradiation: none) was 0.929 and the ISRE reporter ([2]; irradiation: 8 Gy/4 fr) was 0.957. It also gave an ISRE reporter ([2]; irradiation: none) of 1.
`CC1OC(OC2CCC3(C)C(CCC4(C)C3C=CC35OCC6(CCC(C)(C)CC63)C(O)CC45C)C2(C)CO)C(O)C(OC2OC(CO)C(O)C(O)C2O)C1O` (stereo not drawn) [Saikosaponin D] was tested, and the NF-kB reporter ([1]; irradiation: none) was 2.26 and the ISRE reporter ([2]; irradiation: none) was 0.456.
Compound `CCOC(=O)CCC(=O)OC1C(OC2C(C)C(OC3CC(C)(OC)C(O)C(C)O3)C(C)C(=O)OC(CC)C(C)(O)C(O)C(C)C(=O)C(C)CC2(C)O)OC(C)CC1N(C)C` (stereo not drawn) [Erythromycin Ethylsuccinate] has an NF-kB reporter ([1]; irradiation: 8 Gy/4 fr) of 0.97, an NF-kB reporter ([1]; irradiation: none) of 1.12 and an ISRE reporter ([2]; irradiation: 8 Gy/4 fr) of 0.858. For the same compound, the ISRE reporter ([2]; irradiation: none) was 0.869.
In the case of `COC1CC(OC2/C(C)=C/CC3CC(CC4(CCC(C)C(C5CCCCC5)O4)O3)OC(=O)C3C=C(C)/C(=N\O)C4OC/C(=C\C=C\C2C)C34O)OC(C)C1O` (stereo not drawn) [Selamectin], the NF-kB reporter ([1]; irradiation: none) was 5.22 and the ISRE reporter ([2]; irradiation: none) was 2.55.
`CCCNC(C)C(=O)Nc1ccccc1C` (stereo not drawn) [Prilocaine] was tested, and the NF-kB reporter ([1]; irradiation: 8 Gy/4 fr) was 1.12, the NF-kB reporter ([1]; irradiation: none) was 0.849 and the ISRE reporter ([2]; irradiation: 8 Gy/4 fr) was 1.06. The ISRE reporter ([2]; irradiation: none) was 0.653.
`O=C1c2ccccc2C(=O)C1c1ccccc1` [Phenindione] was tested, and the NF-kB reporter ([1]; irradiation: 8 Gy/4 fr) was 1.19, the NF-kB reporter ([1]; irradiation: none) was 0.952 and the ISRE reporter ([2]; irradiation: 8 Gy/4 fr) was 0.967. It also gave an ISRE reporter ([2]; irradiation: none) of 0.712.
`Cl.N=C(N)NC(=O)c1nc(Cl)c(N)nc1N` [Amiloride HCl] gave an NF-kB reporter ([1]; irradiation: 8 Gy/4 fr) of 0.844, an NF-kB reporter ([1]; irradiation: none) of 0.806 and an ISRE reporter ([2]; irradiation: 8 Gy/4 fr) of 0.833. The ISRE reporter ([2]; irradiation: none) was 0.996.
In the case of `CCCCN1CCCCC1C(=O)Nc1c(C)cccc1C.Cl` (stereo not drawn) [Levobupivacaine HCl], the NF-kB reporter ([1]; irradiation: 8 Gy/4 fr) was 0.598, the NF-kB reporter ([1]; irradiation: none) was 0.725 and the ISRE reporter ([2]; irradiation: 8 Gy/4 fr) was 0.689. For the same compound, the ISRE reporter ([2]; irradiation: none) was 0.879.
Compound `N=C(NCCCCCCNC(=N)NC(=N)Nc1ccc(Cl)cc1)NC(=N)Nc1ccc(Cl)cc1` [Chlorhexidine] has an NF-kB reporter ([1]; irradiation: 8 Gy/4 fr) of 1.77 and an ISRE reporter ([2]; irradiation: 8 Gy/4 fr) of 0.359.
`C(=C\c1ccccc1)/CN1CCN(C(c2ccccc2)c2ccccc2)CC1` [Cinnarizine] showed an NF-kB reporter ([1]; irradiation: 8 Gy/4 fr) of 0.735, an NF-kB reporter ([1]; irradiation: none) of 1.23 and an ISRE reporter ([2]; irradiation: 8 Gy/4 fr) of 0.629. For the same compound, the ISRE reporter ([2]; irradiation: none) was 0.974.
`CCCCC1=NC2(CCCC2)C(=O)N1Cc1ccc(-c2ccccc2-c2nn[nH]n2)cc1` [Irbesartan] was tested, and the NF-kB reporter ([1]; irradiation: 8 Gy/4 fr) was 0.885, the NF-kB reporter ([1]; irradiation: none) was 0.993 and the ISRE reporter ([2]; irradiation: 8 Gy/4 fr) was 0.778. For the same compound, the ISRE reporter ([2]; irradiation: none) was 0.736.
`CCCCc1oc2ccc(NS(C)(=O)=O)cc2c1C(=O)c1ccc(OCCCN(CCCC)CCCC)cc1` [Dronedarone] showed an NF-kB reporter ([1]; irradiation: none) of 2.54 and an ISRE reporter ([2]; irradiation: none) of 0.858.
For `COC(=O)C1C(C)C(OC)/C=C/OC2(C)Oc3c(C)c(O)c4c(O)c(cc([O-])c4c3C2=O)NC(=O)/C(C)=C\C=C\C(C)C(O)C(C)C(O)C1C.[Na+]` (stereo not drawn) [Rifamycin sodium salt], the NF-kB reporter ([1]; irradiation: 8 Gy/4 fr) was 1.6, the NF-kB reporter ([1]; irradiation: none) was 1.17 and the ISRE reporter ([2]; irradiation: 8 Gy/4 fr) was 1.08. For the same compound, the ISRE reporter ([2]; irradiation: none) was 1.01.
